Laboratory results from patent publication US20230250147A1 (Sanofi, published 2023).

T1: Mouse GLP-1R (mouse, UniProt O35659 22-463)
T1 sequence (looked up): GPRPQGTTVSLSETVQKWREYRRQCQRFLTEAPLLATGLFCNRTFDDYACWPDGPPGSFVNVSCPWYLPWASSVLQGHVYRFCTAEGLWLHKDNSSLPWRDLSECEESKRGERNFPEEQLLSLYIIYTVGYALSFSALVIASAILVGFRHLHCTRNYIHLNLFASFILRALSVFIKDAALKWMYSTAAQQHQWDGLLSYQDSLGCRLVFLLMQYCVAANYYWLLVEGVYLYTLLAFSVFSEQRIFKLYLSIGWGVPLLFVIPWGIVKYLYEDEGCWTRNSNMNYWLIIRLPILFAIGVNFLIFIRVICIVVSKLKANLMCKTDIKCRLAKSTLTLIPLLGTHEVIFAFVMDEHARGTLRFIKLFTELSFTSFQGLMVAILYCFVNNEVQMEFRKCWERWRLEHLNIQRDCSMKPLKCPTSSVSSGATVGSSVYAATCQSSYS

B1: GLP-1RA/FGF21 Fc fusion protein SEQ ID NO: 66 (Fc fusion)
chain: GHGEGTFTSDKSKQLEEEAVRLFIEWLKAGGPKKQRLSGGGGGGGSGGGGSGGGGSA[… human IgG4 Fc with changes …]GGGSGSAHPIPDSSPLLQFGGQVRQRYLYTDDACQTEAHLEIREDGTVGGAADQSPESLLQLKALKPGVIQILGVKTSRFLCQRPDGALYGSLHFDPEACSFRELLLEDGYNVYQSEAHGLPLHLPGCKSPHRDPAPRGPARFLPLPGLPPAPPEPPGILAPQPPDVGSSDPLSMVGSQGRSPSYAS
B2: GLP-1RA/FGF21 Fc fusion protein SEQ ID NO: 58 (Fc fusion)
chain: YGEGTFTSDKSKLLEKRLVRLFIEWLIAGGHSSGKPPPKGGGGGGGSGGGGSGGGGSA[… human IgG4 Fc with changes …]GGGSGSAHPIPDSSPLLQFGGQVRQRYLYTDDACQTEAHLEIREDGTVGGAADQSPESLLQLKALKPGVIQILGVKTSRFLCQRPDGALYGSLHFDPEACSFRELLLEDGYNVYQSEAHGLPLHLPGCKSPHRDPAPRGPARFLPLPGLPPAPPEPPGILAPQPPDVGSSDPLSMVGSQGRSPSYAS
B3: GLP-1RA/FGF21 Fc fusion protein SEQ ID NO: 199 (Fc fusion)
chain: HGEGTFTSDLSKQLEKELVRLFYEWLKAGGHSSGKPPPKGGGGGGGSGGGGSGGGGSA[… human IgG4 Fc with changes …]GGGSGSAHPIPDSSPLLQFGGQVRQRYLYTDDACQTEAHLEIREDGTVGGAADQSPESLLQLKALKPGVIQILGVKTSRFLCQRPDGALYGSLHFDPEACSFRELLLEDGYNVYQSEAHGLPLHLPGCKSPHRDPAPRGPARFLPLPGLPPAPPEPPGILAPQPPDVGSSDPLSMVGSQGRSPSYAS
B4: GLP-1RA/FGF21 Fc fusion protein SEQ ID NO: 76 (Fc fusion)
chain: HGEGTFTSDKSKQLEKRLVRLLIEWLIAGGHSSGKPPPKGGGGGGGSGGGGSGGGGSA[… human IgG4 Fc with changes …]GGGSGSAHPIPDSSPLLQFGGQVRQRYLYTDDACQTEAHLEIREDGTVGGAADQSPESLLQLKALKPGVIQILGVKTSRFLCQRPDGALYGSLHFDPEACSFRELLLEDGYNVYQSEAHGLPLHLPGCKSPHRDPAPRGPARFLPLPGLPPAPPEPPGILAPQPPDVGSSDPLSMVGSQGRSPSYAS
B5: GLP-1RA/FGF21 Fc fusion protein SEQ ID NO: 187 (Fc fusion)
chain: HGEGTFTSDLSKQLAERLVRLFIEWLIKGGHSSGKPPPKGGGGGGGSGGGGSGGGGSA[… human IgG4 Fc with changes …]GGGSGSAHPIPDSSPLLQFGGQVRQRYLYTDDACQTEAHLEIREDGTVGGAADQSPESLLQLKALKPGVIQILGVKTSRFLCQRPDGALYGSLHFDPEACSFRELLLEDGYNVYQSEAHGLPLHLPGCKSPHRDPAPRGPARFLPLPGLPPAPPEPPGILAPQPPDVGSSDPLSMVGSQGRSPSYAS
B6: GLP-1RA/FGF21 Fc fusion protein SEQ ID NO: 193 (Fc fusion)
chain: HGEGTFTSDLSKQLEKELVRLFYEWLINGGHSSQKPPPKGGGGGGGSGGGGSGGGGSA[… human IgG4 Fc with changes …]GGGSGSAHPIPDSSPLLQFGGQVRQRYLYTDDACQTEAHLEIREDGTVGGAADQSPESLLQLKALKPGVIQILGVKTSRFLCQRPDGALYGSLHFDPEACSFRELLLEDGYNVYQSEAHGLPLHLPGCKSPHRDPAPRGPARFLPLPGLPPAPPEPPGILAPQPPDVGSSDPLSMVGSQGRSPSYAS
B7: GLP-1RA/FGF21 Fc fusion protein SEQ ID NO: 60 (Fc fusion)
chain: YGEGTFTSDKSKQLEKRLVRLFIEWLIAGGHSSGKPPPKGGGGGGGSGGGGSGGGGSA[… human IgG4 Fc with changes …]GGGSGSAHPIPDSSPLLQFGGQVRQRYLYTDDACQTEAHLEIREDGTVGGAADQSPESLLQLKALKPGVIQILGVKTSRFLCQRPDGALYGSLHFDPEACSFRELLLEDGYNVYQSEAHGLPLHLPGCKSPHRDPAPRGPARFLPLPGLPPAPPEPPGILAPQPPDVGSSDPLSMVGSQGRSPSYAS
B8: GLP-1RA/FGF21 Fc fusion protein SEQ ID NO: 201 (Fc fusion)
chain: HGEGTFTSDLSKQLEKELVRLFYEWLIKGGHSSQKPPPKGGGGGGGSGGGGSGGGGSA[… human IgG4 Fc with changes …]GGGSGSAHPIPDSSPLLQFGGQVRQRYLYTDDACQTEAHLEIREDGTVGGAADQSPESLLQLKALKPGVIQILGVKTSRFLCQRPDGALYGSLHFDPEACSFRELLLEDGYNVYQSEAHGLPLHLPGCKSPHRDPAPRGPARFLPLPGLPPAPPEPPGILAPQPPDVGSSDPLSMVGSQGRSPSYAS

How the values were obtained:
Test in all cases: cell-based or functional assay
[1] = target: human glucagon-like peptide-1 (GLP-1) receptor (human, UniProt P43220 24-463)
Mouse GLP-1R = target: T1, Mouse GLP-1R
Monkey GLP-1R = Monkey GLP-1R (monkey)

Binder | HTRF cAMP EC50 [1] | HTRF cAMP EC50 (Mouse GLP-1R) | HTRF cAMP EC50 (Monkey GLP-1R)
B1 | 33.8 pM | 11 pM | 31.4 pM
B2 | 9.38 pM | 7.19 pM | 5.76 pM
B3 | 163 pM | 153 pM | 231 pM
B4 | 39.2 pM | 190 pM | 40.3 pM
B5 | 67.4 pM | 67.5 pM | 63.2 pM
B6 | 108 pM | 71.3 pM | 151 pM
B7 | 22.5 pM | 11.7 pM | 13 pM
B8 | 101 pM | 69.8 pM | 98.6 pM
